# The list shows a part of the results. The full chains were built here from the parent and the listed change. Values near 0.05 are background.
# B1: TEV protease; numbered along this chain (parent)
# chain: MGESLFKGPRDYNPISSSICHLTNESDGHTTSLYGIGFGPFIITNKHLFRRNNGTLVVQSLHGVFKVKDTTTLQQHLVDGRDMIIIRMPKDFPPFPQKLKFREPQREERICLVTTNFQTKSMSSMVSDTSCTFPSGDGIFWKHWIQTKDGQCGSPLVSTRDGFIVGIHSASNFTNTNNYFTSVPKNFMELLTNQEAQQWVSGWRLNADSVLWGGHKVFMVKPEEPFQPVKEATQL
# Variants of: B1
# Experiment: raw area under fraction-flipped curve 0-4 h after induction (AUC4h, not background-subtracted), DNA-recorder readout of cleavage of the substrate (dimensionless); higher = more cleavage of the substrate by the protease variant
# Conditions: temperature: 34 °C; time window: 0-4 h after rhamnose induction
# 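Also: Bxb1 expression induced with 0.2% (w/v) L-rhamnose at OD600 near 0.5, cultures sampled hourly, flipped fraction per protease–substrate barcode pair counted by paired-end Illumina sequencing.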
Variant,area with substrate ENLYDQS,area with substrate ENLYEQS,area with substrate ENLYGQS,area with substrate ENLYHQS,area with substrate ENLYIQS,area with substrate ENLYKQS,area with substrate ENLYMQS,area with substrate ENLYNQS,area with substrate ENLYPQS,area with substrate ENLYQQS,area with substrate ENLYRQS,area with substrate ENLYSQS,area with substrate ENLYTQS,area with substrate ENLYVQS,area with substrate ENLYWQS,area with substrate ENLYYQS,area with substrate ENLYLQS
MGESLFKGPRDYNPISSSICHLTNESDGHTTSLYGIGFGPFIITNKHLFRRNNGTLVVQSLHGVFKVKDTTTLQQHLVDGRDMIIIRMPKDFPPFPQKLKFREPQREERICLVTTNFQTKSMSSMVSDTSCTFPSGDGIFWKHWIQTKDIQCGSPLVSTRDGFIVGIHSASNFTNTNNYFTSVPKNFMELLTNQEAQQWVSGWRLNADSVLWGGHKVFMVKPEEPFQPVKEATQL [G150I],0.0565,0.0591,0.0619,0.0611,0.0475,0.0547,0.0477,0.058,0.0382,0.0652,0.0601,0.0628,0.0667,0.0648,0.0524,–,–
MGESLFKGPRDYNPISSSICHLTNESDGHTTSLYGIGFGPFIITNKHLFRRNNGTLVVQSLHGVFKVKDTTTLQQHLVDGRDMIIIRMPKDFPPFPQKLKFREPQREERICLVTTNFQTKSMSSMVSDTSCTFPSGDGIFWKHWIQTKDGQCGSPTVSTRDGFIVGIHSASNFTNTNNYFTSVPKNFMELLTNQEAQQWVSGWRLNADSVLWGGHKVFMVKPEEPFQPVKEATQL [L156T],0.0574,0.0678,0.051,0.0596,0.112,0.0622,0.073,0.0593,–,0.0499,0.0818,0.063,–,0.087,0.0703,–,–
MGESLFKGPRDYNPISSSICHLTNESDGHTTSLYGIGFGPFIITNKHLFRRNNGTLVVQSLHGVFKVKDTTTLQQHLVDGRDMIIIRMPKDFPPFPQKLKFREPQREERICLVTTNFQTKSMSSMVSDTSCTFPSGDGIFWKHWIQTKDGQCGSPLVSSRDGFIVGIHSASNFTNTNNYFTSVPKNFMELLTNQEAQQWVSGWRLNADSVLWGGHKVFMVKPEEPFQPVKEATQL [T159S],0.0627,0.0587,0.057,–,0.123,–,0.0922,0.072,0.0841,–,–,–,–,0.129,0.0633,–,–
MGESLFKGPRDYNPISSSICHLTNESDGHTTSLYGIGFGPFIITNKHLFRRNNGTLVVQSLHGVFKVKDTTTLQQHLVDGRDMIIIRMPKDFPPFPQKLKFREPQREERICLVTTNFQTKSMSSMVSDTSCTFPSGDGIFWKHWIQTKDGQCGSPLVSTRDIFIVGIHSASNFTNTNNYFTSVPKNFMELLTNQEAQQWVSGWRLNADSVLWGGHKVFMVKPEEPFQPVKEATQL [G162I],0.0401,–,–,–,0.0641,0.0877,0.062,–,0.0527,–,0.0635,–,0.0595,–,0.0626,0.0391,–
MGESLFKGPRDYNPISSSICHLTNESDGHTTSLYGIGFGPFIITNKHLFRRNNGTLVVQSLHGVFKVKDTTTLQQHLVDGRDMIIIRMPKDFPPFPQKLKFREPQREERICLVTTNFQTKSMSSMVSDTSCTFPSGDGIFWKHWIQTKDGQCGSPLVSTRDWFIVGIHSASNFTNTNNYFTSVPKNFMELLTNQEAQQWVSGWRLNADSVLWGGHKVFMVKPEEPFQPVKEATQL [G162W],0.0662,0.0881,–,0.0469,–,0.0619,0.114,–,0.0876,0.0602,0.0596,0.0613,–,0.075,–,0.0543,–
MGESLFKGPRDYNPISSSICHLTNESDGHTTSLYGIGFGPFIITNKHLFRRNNGTLVVQSLHGVFKVKDTTTLQQHLVDGRDMIIIRMPKDFPPFPQKLKFREPQREERICLVTTNFQTKSMSSMVSDTSCTFPSGDGIFWKHWIQTKDGQCGSPLVSTRDGFIYGIHSASNFTNTNNYFTSVPKNFMELLTNQEAQQWVSGWRLNADSVLWGGHKVFMVKPEEPFQPVKEATQL [V165Y],0.0537,–,0.0557,0.0601,0.0369,–,0.0512,0.0579,0.058,–,0.0569,0.0429,–,0.0536,0.0447,–,–
MGESLFKGPRDYNPISSSICHLTNESDGHTTSLYGIGFGPFIITNKHLFRRNNGTLVVQSLHGVFKVKDTTTLQQHLVDGRDMIIIRMPKDFPPFPQKLKFREPQREERICLVTTNFQTKSMSSMVSDTSCTFPSGDGIFWKHWIQTKDGQCGSPLVSTRDGFIVGIHEASNFTNTNNYFTSVPKNFMELLTNQEAQQWVSGWRLNADSVLWGGHKVFMVKPEEPFQPVKEATQL [S169E],0.0722,0.0584,0.0574,0.0719,–,0.0597,–,0.0584,0.0546,0.022,0.0571,–,0.0737,0.0532,0.0464,–,0.0546
MGESLFKGPRDYNPISSSICHLTNESDGHTTSLYGIGFGPFIITNKHLFRRNNGTLVVQSLHGVFKVKDTTTLQQHLVDGRDMIIIRMPKDFPPFPQKLKFREPQREERICLVTTNFQTKSMSSMVSDTSCTFPSGDGIFWKHWIQTKDGQCGSPLVSTRDGFIVGIHSHSNFTNTNNYFTSVPKNFMELLTNQEAQQWVSGWRLNADSVLWGGHKVFMVKPEEPFQPVKEATQL [A170H],0.0872,0.0681,0.0667,0.0621,–,–,0.064,0.0693,0.0537,–,–,–,–,–,–,0.0507,–
MGESLFKGPRDYNPISSSICHLTNESDGHTTSLYGIGFGPFIITNKHLFRRNNGTLVVQSLHGVFKVKDTTTLQQHLVDGRDMIIIRMPKDFPPFPQKLKFREPQREERICLVTTNFQTKSMSSMVSDTSCTFPSGDGIFWKHWIQTKDGQCGSPLVSTRDGFIVGIHSASNCTNTNNYFTSVPKNFMELLTNQEAQQWVSGWRLNADSVLWGGHKVFMVKPEEPFQPVKEATQL [F173C],0.0665,0.0704,0.0622,0.0537,–,–,–,0.0507,0.061,0.0613,–,–,0.0803,–,0.0544,0.0721,–
MGESLFKGPRDYNPISSSICHLTNESDGHTTSLYGIGFGPFIITNKHLFRRNNGTLVVQSLHGVFKVKDTTTLQQHLVDGRDMIIIRMPKDFPPFPQKLKFREPQREERICLVTTNFQTKSMSSMVSDTSCTFPSGDGIFWKHWIQTKDGQCGSPLVSTRDGFIVGIHSASNYTNTNNYFTSVPKNFMELLTNQEAQQWVSGWRLNADSVLWGGHKVFMVKPEEPFQPVKEATQL [F173Y],0.0609,0.0532,0.0708,0.0546,0.0982,0.0324,–,0.0698,0.0957,0.0873,0.0484,0.0622,–,–,0.0817,0.024,–
MGESLFKGPRDYNPISSSICHLTNESDGHTTSLYGIGFGPFIITNKHLFRRNNGTLVVQSLHGVFKVKDTTTLQQHLVDGRDMIIIRMPKDFPPFPQKLKFREPQREERICLVTTNFQTKSMSSMVSDTSCTFPSGDGIFWKHWIQTKDGQCGSPLVSTRDGFIVGIHSASNFNNTNNYFTSVPKNFMELLTNQEAQQWVSGWRLNADSVLWGGHKVFMVKPEEPFQPVKEATQL [T174N],0.0574,0.065,0.0716,0.0649,–,0.0547,0.108,–,0.0783,–,0.0587,–,0.0558,0.113,0.0843,–,–
MGESLFKGPRDYNPISSSICHLTNESDGHTTSLYGIGFGPFIITNKHLFRRNNGTLVVQSLHGVFKVKDTTTLQQHLVDGRDMIIIRMPKDFPPFPQKLKFREPQREERICLVTTNFQTKSMSSMVSDTSCTFPSGDGIFWKHWIQTKDGQCGSPLVSTRDGFIVGIHSASNFTNTNEYFTSVPKNFMELLTNQEAQQWVSGWRLNADSVLWGGHKVFMVKPEEPFQPVKEATQL [N178E],0.073,–,0.062,–,0.0647,–,0.0651,0.0621,0.0273,0.0113,0.063,–,–,0.0582,–,–,–
MGESLFKGPRDYNPISSSICHLTNESDGHTTSLYGIGFGPFIITNKHLFRRNNGTLVVQSLHGVFKVKDTTTLQQHLVDGRDMIIIRMPKDFPPFPQKLKFREPQREERICLVTTNFQTKSMSSMVSDTSCTFPSGDGIFWKHWIQTKDGQCGSPLVSTRDGFIVGIHSASNFTNTNGYFTSVPKNFMELLTNQEAQQWVSGWRLNADSVLWGGHKVFMVKPEEPFQPVKEATQL [N178G],0.0684,0.0689,–,0.0608,–,0.058,–,0.0498,–,0.0453,0.0674,0.0954,–,0.142,–,–,0.0867
MGESLFKGPRDYNPISSSICHLTNESDGHTTSLYGIGFGPFIITNKHLFRRNNGTLVVQSLHGVFKVKDTTTLQQHLVDGRDMIIIRMPKDFPPFPQKLKFREPQREERICLVTTNFQTKSMSSMVSDTSCTFPSGDGIFWKHWIQTKDGQCGSPLVSTRDGFIVGIHSASNFTNTNNYFTIVPKNFMELLTNQEAQQWVSGWRLNADSVLWGGHKVFMVKPEEPFQPVKEATQL [S182I],0.0595,0.0625,–,0.0698,0.1,0.0565,0.0888,0.0595,0.0746,0.0594,–,–,0.0734,–,0.101,0.0457,–
MGESLFKGPRDYNPISSSICHLTNESDGHTTSLYGIGFGPFIITNKHLFRRNNGTLVVQSLHGVFKVKDTTTLQQHLVDGRDMIIIRMPKDFPPFPQKLKFREPQREERICLVTTNFQTKSMSSMVSDTSCTFPSGDGIFWKHWIQTKDGQCGSPLVSTRDGFIVGIHSASNFTNTNNYFTSQPKNFMELLTNQEAQQWVSGWRLNADSVLWGGHKVFMVKPEEPFQPVKEATQL [V183Q],0.059,0.0813,0.0359,0.0676,0.0501,0.0224,0.0619,0.056,–,0.0616,0.0481,0.0466,0.0516,–,0.0558,–,0.0794
MGESLFKGPRDYNPISSSICHLTNESDGHTTSLYGIGFGPFIITNKHLFRRNNGTLVVQSLHGVFKVKDTTTLQQHLVDGRDMIIIRMPKDFPPFPQKLKFREPQREERICLVTTNFQTKSMSSMVSDTSCTFPSGDGIFWKHWIQTKDGQCGSPLVSTRDGFIVGIHSASNFTNTNNYFTSVPHNFMELLTNQEAQQWVSGWRLNADSVLWGGHKVFMVKPEEPFQPVKEATQL [K185H],0.0711,0.0823,–,–,–,0.0248,–,0.0786,–,–,0.0515,–,–,–,–,0.055,–
MGESLFKGPRDYNPISSSICHLTNESDGHTTSLYGIGFGPFIITNKHLFRRNNGTLVVQSLHGVFKVKDTTTLQQHLVDGRDMIIIRMPKDFPPFPQKLKFREPQREERICLVTTNFQTKSMSSMVSDTSCTFPSGDGIFWKHWIQTKDGQCGSPLVSTRDGFIVGIHSASNFTNTNNYFTSVPKNFMELETNQEAQQWVSGWRLNADSVLWGGHKVFMVKPEEPFQPVKEATQL [L191E],0.054,0.0638,0.0585,0.0605,0.0698,–,0.0591,0.0517,0.0612,0.0661,0.0577,0.055,–,–,0.0525,0.0528,0.0533
MGESLFKGPRDYNPISSSICHLTNESDGHTTSLYGIGFGPFIITNKHLFRRNNGTLVVQSLHGVFKVKDTTTLQQHLVDGRDMIIIRMPKDFPPFPQKLKFREPQREERICLVTTNFQTKSMSSMVSDTSCTFPSGDGIFWKHWIQTKDGQCGSPLVSTRDGFIVGIHSASNFTNTNNYFTSVPKNFMELLTNYEAQQWVSGWRLNADSVLWGGHKVFMVKPEEPFQPVKEATQL [Q194Y],0.0522,–,–,–,–,–,0.0906,0.0422,0.0619,–,0.0548,–,–,–,0.0911,–,–
MGESLFKGPRDYNPISSSICHLTNESDGHTTSLYGIGFGPFIITNKHLFRRNNGTLVVQSLHGVFKVKDTTTLQQHLVDGRDMIIIRMPKDFPPFPQKLKFREPQREERICLVTTNFQTKSMSSMVSDTSCTFPSGDGIFWKHWIQTKDGQCGSPLVSTRDGFIVGIHSASNFTNTNNYFTSVPKNFMELLTNQEAAQWVSGWRLNADSVLWGGHKVFMVKPEEPFQPVKEATQL [Q197A],0.0709,0.0683,0.0652,–,0.0838,–,0.104,–,–,0.0805,–,–,0.0751,0.111,0.0691,–,–
